Hit rate of the full screen: of about 48,000 compounds, about 450 (0.94%) were called active. Inconclusive results, whose numbers are uncertain, are shown with a selection of clear calls. The call rests on the fitted dose curve; in most records, active means well fitted inhibition curve with a large enough effect; inconclusive means small, poorly fitted or top-dose-only effect; inactive means no such curve, though single readings can be large or run the other way. Potencies beside an inconclusive call are fits to weak or partial responses and may not hold up.
Test: Primary qHTS for Identification of Small Molecule Inhibitors of Huntingtin Promoter Activity; further: nearly all actives have a fitted effect of over 50% in size
Details: HEK293 HTT promoter firefly luciferase reporter (activity 0% = vehicle and -100% = no light), 24 h; activity change, negative = inhibition: at 57.5 µM (top of the series)
Summary of the method: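 HEK293 luciferase promoter-reporter cells (2,500/well) plated 24 h, then compounds added at up to 57.5 uM final for 24 h at 37 °C. Firefly luminescence by Dual-Glo, normalized to vehicle (0%) and zero RLU (-100%).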
Potency means the concentration at half of the fitted maximal effect; tags describe the fitted curve by direction and shape.

Structure (SMILES)	activity change, negative = inhibition	Potency
Cc1cc(S(=O)(=O)Nc2ccc(O)c(Sc3nc4ccccc4s3)c2)ccc1Cl	inactive: -10.2%	
CCS(=O)(=O)c1cccc(C(=O)Nc2ccc(-c3nc4ccccc4s3)c(O)c2)c1		inconclusive: 5.62 µM [inhibitor, partial curve]
CN(C)c1nc(N(C)C)nc(N(C)C)n1		inconclusive: 15.3 µM [inhibitor, partial curve]
COc1cc(N2CCC(C(N)=O)CC2)ccc1Nc1nc(N)c(Cl)c(Nc2ccccc2S(=O)(=O)C(C)C)n1		inconclusive: 2.43 µM [inhibitor, full curve, poor fit]
CC(C)c1ccc(OCC(=O)NCC(c2ccc(Cl)cc2)N2CCOCC2)cc1 (configuration not stated)		inconclusive: 20 µM [inhibitor, partial curve, poor fit]
Cc1ccc(NS(=O)(=O)c2ccc3c(c2)C(C(C)C)C(=O)N3)cc1C (configuration not stated)	inactive: -27.4%	
COc1nccc(-c2c(-c3ccc(F)cc3)ncn2C2CCNCC2)n1		inconclusive: 21.7 µM [inhibitor, partial curve, poor fit]
N#Cc1cccc(NC(=O)C2CCN(c3nc(-c4ccc(Cl)cc4)no3)CC2)c1		inconclusive: 25.1 µM [inhibitor, partial curve, poor fit]
CCOc1ccc(-c2nnc(SCC(=O)Nc3cc(C)ccc3OC)o2)cc1		inconclusive: 35.5 µM [inhibitor, partial curve]
COc1cc2c(Oc3ccc4[nH]c(C)cc4c3F)ncnc2cc1OCCCN1CCCC1		inconclusive: 27.3 µM [inhibitor, single point]
CN(Cc1ccccc1)C(=O)CSc1nc(-c2ccc(F)cc2)cc(C(F)(F)F)n1		inconclusive: 28.2 µM [inhibitor, single point]
O=C(Nc1nnc(S(=O)(=O)N2CCc3ccccc32)s1)c1cccc(Cl)c1		inconclusive: 12.6 µM [inhibitor, partial curve, poor fit]
COc1ccc(NC(=O)C2CCCN(c3nnc(C)c4c(C)n(-c5ccccc5)nc34)C2)cc1Cl (configuration not stated)		inconclusive: 31.6 µM [inhibitor, partial curve, poor fit]
O=C(CSc1nc(-c2ccc(F)cc2)[nH]c1-c1ccc(F)cc1)Nc1ccc2c(c1)OCCO2		inconclusive: 20 µM [inhibitor, partial curve]
Cc1ccc(C)c(N2CCN(C(=O)c3cnn(-c4ccccc4Cl)c3C3CCN(C(=O)OC(C)(C)C)CC3)CC2)c1		inconclusive: 31.6 µM [inhibitor, single point]
COc1ccc(Cc2nc3ccc(C(=O)NCc4ccccc4Cl)cc3o2)cc1		inconclusive: 25.1 µM [inhibitor, partial curve, poor fit]
CCc1ccc(NC(=O)C(CC)n2c(=O)c(-c3ccccc3NC(C)=O)nc3ccccc32)cc1 (configuration not stated)		active: 14.1 µM
COc1cccc2c1C(=O)c1c(O)c3c(c(O)c1C2=O)C[C@@](O)(C(=O)CO)C[C@@H]3O[C@H]1C[C@H](N)[C@H](OC2CCCCO2)[C@H](C)O1 (some centres not stated)		inconclusive: 3.06 µM [inhibitor, partial curve]
CN(C)S(=O)(=O)c1ccc(C(=O)NCCSc2c(-c3ccc(Cl)cc3)[nH]c3ccccc23)cc1		inconclusive: 22.4 µM [inhibitor, single point]

Structure (SMILES)	activity change, negative = inhibition	Potency
Cc1c(C(=O)OC2CCCCCC2)[nH]c2c1C(=O)CC(c1ccc(Cl)cc1)C2 (configuration not stated)	inactive: 6.04%	
O=C(c1ccc2c(c1)CCN2S(=O)(=O)c1ccc(Cl)cc1)N1CCN(c2ccc(F)cc2)CC1		inconclusive: 20 µM [inhibitor, partial curve, poor fit]
O=C(O)c1cc(-c2ccccc2)nc2ccccc12		inactive
Cc1cc(C)cc(NC(=O)Cn2cc(C(=O)c3cccs3)c3ccccc32)c1		inconclusive: 25.1 µM [inhibitor, single point]
CC(=O)N1CCC(N(Cc2ccco2)C(=O)Nc2ccc(C)c(Cl)c2)CC1		inconclusive: 20 µM [inhibitor, partial curve, poor fit]
CCCCOc1ccc(Cn2c(=O)oc3ccc(C)cc32)cc1OC		inconclusive: 39.8 µM [inhibitor, single point]
CCc1c(C)nc2nncn2c1NCc1ccccc1		inconclusive: 25.1 µM [inhibitor, partial curve]
O=S1(=O)c2ccccc2N(Cc2ccc(Cl)cc2)c2ccccc21		inconclusive: 28.2 µM [inhibitor, partial curve]
Cc1ccc(S(=O)(=O)N(CC(=O)NCCSc2ccc(Cl)cc2)c2ccccc2C)cc1		inconclusive: 31.6 µM [inhibitor, single point]
O=C(CCCCCn1c(=O)c2sccc2n(Cc2ccc(Cl)cc2)c1=O)NCc1ccc2c(c1)OCO2		inconclusive: 22.4 µM [inhibitor, partial curve]
O=C(NCCc1ccc(Cl)cc1)c1ccc2c(c1)N(Cc1ccc(Cl)cc1)C(=O)CS2		inconclusive: 39.8 µM [inhibitor, single point]
CCN(Cc1ccccc1)Cc1c(O)ccc2oc(C)c(C(=O)Nc3ccc(C)cc3C)c12		inconclusive: 25.1 µM [inhibitor, single point]
CC(C)c1ccc(NC(=O)N2c3ccccc3Sc3ccccc32)cc1		inconclusive: 25.1 µM [inhibitor, partial curve]
CC(C)(C)C1CCc2c(sc(NC(=O)c3cccc(Cl)c3)c2C(=O)NCc2ccco2)C1 (configuration not stated)		inconclusive: 12.6 µM [inhibitor, partial curve]
O=C(O)C1=NC(C(=O)O)CC(C=CN2c3cc(O)c(OC4OC(CO)C(O)C(O)C4O)cc3CC2C(=O)O)=C1 (configuration not stated)	inactive: 13.7%	
COc1ccc(NCc2cccn2-c2nnc(N3CCCCCC3)s2)cc1		inconclusive: 8.91 µM [inhibitor, full curve, poor fit]
CCc1ccc(S(=O)(=O)NCc2ccc3c(c2)CCN3C(=O)c2ccc(C)cc2)cc1		inconclusive: 17.8 µM [inhibitor, partial curve]
CN(C(=O)CC(=O)Nc1ccc2nc3n(c(=O)c2c1)CCCCC3)c1ccccc1F		inconclusive: 11.2 µM [inhibitor, partial curve, poor fit]
